Experimental data published in PubChem BioAssay AID1508624 (National Center for Advancing Translational Sciences (NCATS), 2021).
Hit rate of the full screen: of about 48,000 compounds, about 120 (0.25%) were called active. Roughly 4% stayed inconclusive and do not appear here. Calls come from the whole dose curve; as a rule, active = well fitted activation curve with a large enough effect; inconclusive = small, poorly fitted or top-dose-only effect, or another doubt; inactive = no such curve, though single readings can be large or run the other way. The list shows a part of the results.

assay: Primary qHTS for Identification of Small Molecule Activators of Huntingtin-Antisense Promoter Activity; settings: HEK293 HTT-AS promoter firefly luciferase reporter, 24 h; series mostly up to 57.5 µM; activity change, positive = activation: at the top concentration; note: nearly all actives have a fitted effect of over 55% in size
Method in brief: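 Firefly luciferase readout (Dual-Glo, 10 min RT) after 24 h, 37 °C compound exposure (final up to 57.5 uM) of HEK293 reporter cells cultured 24 h beforehand; PTC124 at 50 uM final as control inhibitor; activity scaled vehicle 0%, zero RLU -100%.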

Activity change, positive = activation, inactive:
Cc1ccc(NC(=O)Cn2cc(S(=O)(=O)N3CCCC3)c(S(=O)(=O)N3CCCC3)c2)cc1C 18.9% [at 11.5 µM, percent change from vehicle, -100% = no light]
CCCCC[C@H](O)C=C[C@H]1[C@H](O)CC(=O)[C@H]1CC=CCCCC(=O)O -5.11%
CCOc1ccc(NC(=O)c2ccc(-c3cccc(Cl)c3C)o2)cc1 -6.84%
CCOc1ccc(N(CC)S(=O)(=O)N2CCCC(C(=O)NCc3ccc(SC)cc3)C2)cc1 (stereo unspecified) -54.2%
COc1cccc(CNC(=O)NCc2noc3ccc(C)cc23)c1 -17.7%
Cc1ccc(NC(=O)CN2C=NS(=O)(=O)c3ccccc32)c(C)c1 -15%
COc1ccc(N2CCN(C(=O)CCS(=O)(=O)c3cc(Br)cc4c3N(C(=O)C3CC3)CC4)CC2)cc1 -4.88%
COc1ccc(NC(=O)CN2C(=O)COc3ccc(S(=O)(=O)N4CCOCC4)cc32)cc1Cl -14.9%
COc1ccc(NC(=O)Nc2nnc(N3CCCCCC3)s2)c(OC)c1 -9.03%
COc1ccccc1-c1cc(C(F)(F)F)nc(S(=O)(=O)CCCC(=O)Nc2ccc(F)c(Cl)c2)n1 -7.46%
COc1ccc(C(=O)N2CCC(c3c[nH]c4ccccc34)(c3c[nH]c4ccccc34)CC2)cc1 -33.8%
COc1ccc(NC(=O)c2cc(C3CC3)nc3c2c(C)nn3-c2ccc(C)cc2)cc1OC -13.1%
CN(C)c1ccc(CNC(=O)C2CCN(S(=O)(=O)c3cn(C)cn3)CC2)cc1 -2.64%
COc1ccccc1CNC(=O)c1oc2c(c1C)-c1nn(Cc3ccc(Cl)cc3)cc1CC2 -28.6%
Cc1ccc(C)c(CN2C(=O)c3ccccc3S(=O)c3ccc(C(=O)NCCc4ccc(Cl)cc4)cc32)c1 (stereo unspecified) -30.8%
COc1ccc(NC(=O)c2sc3nc(-c4cc5cccc(OC)c5oc4=O)[nH]c(=O)c3c2C)cc1 -5.2%
Cc1c(NS(C)(=O)=O)cccc1-c1nc2ccccc2s1 -26%
Cc1ccccc1CN1C(=O)c2ccccc2S(=O)c2ccc(C(=O)NCc3ccco3)cc21 (stereo unspecified) -21.3%
CCN(C(=O)CCS(=O)(=O)c1ccc2c(c1)oc(=O)n2C)c1ccc(OC)cc1 14.9% [at 11.5 µM, percent change from vehicle, -100% = no light]
Cc1ccc(NC(=O)CSc2nc3c(c(=O)[nH]2)CCC3)cc1Cl -6.47%
CCS(=O)(=O)N1CCC2(CC1)OC(=O)C(C)=C2C(=O)NCc1cccc(Cl)c1 -14.4%
CCn1c(COc2cccc(C)c2)nc2ccccc21 -17.8%
O=S(=O)(c1ccc(Br)cc1)c1nc(-c2cccs2)oc1SCc1ccc(F)cc1 -11.3%
COc1cc2c(cc1NC(=O)COc1ccc(Br)cc1C)oc1ccccc12 10.2%
Cc1ccccc1NS(=O)(=O)c1ccc2c(c1)NC(=O)CCS2 -25.5%
CCn1c(SCC(=O)Nc2ccccc2)nc2c([nH]c3ccccc32)c1=O -8.24%
CC(C)CCNC(=O)CCC(=O)N1Cc2ccccc2Oc2ncccc21 -14.4%
Cc1ccc(S(=O)(=O)Nc2ccc3[nH]c(=O)sc3c2)cc1C -20.9%
O=C(c1ccc2c(c1)N(Cc1ccc(Cl)cc1)C(=O)c1ccccc1S2(=O)=O)N1CCC(Cc2ccccc2)CC1 -37.4%
COc1cccc(-n2c(=O)c3cc(OC)c(OC)cc3n(CC(=O)Nc3ccccc3)c2=O)c1 -20.5%
O=C(c1ccc2c(c1)N(Cc1ccc(F)cc1)C(=O)c1ccccc1S2(=O)=O)N1CCCCCC1 -38.3%
CCOc1ccc(NC(=O)CSC2=Nc3ccccc3C3=NC(CC(=O)NCc4ccccc4OC)C(=O)N23)cc1 (stereo unspecified) -50.4%
Cc1ccc(N2CC(NC(=O)c3ccco3)CC2=O)cc1 (stereo unspecified) -5.65%
O=C(Nc1cc2c(cc1C(=O)c1ccc(Br)cc1)OCCO2)c1ccc(Cl)cc1 -5.2%
Cc1oc(-c2ccccc2F)nc1CS(=O)(=O)CC(=O)N1CCN(c2ccc(Cl)cc2)CC1 -55.1%
CCc1cccc(NC(=O)c2c(N3CCCC3=O)c3cc(C)ccc3n2C)c1 -43.1%
Cc1ccc(C)c(S(=O)(=O)c2cn(C)c3cc(F)c(F)cc3c2=O)c1 13.5%
COc1ccc(CCn2c(=O)c3ccccc3n(CC(=O)Nc3cccc(C)c3)c2=O)cc1OC 3.42%
CC(=O)Nc1ccccc1-c1nc2ccccc2n(CC(=O)Nc2ccc(C)c(Cl)c2)c1=O -3.55%
Cc1ccc(S(=O)Cc2ccc(C(=O)NC3CCCCCC3)o2)cc1 (stereo unspecified) -11.2%
CNC(=O)CN(CCN(CCN(CC(=O)[O-])CC(=O)NC)CC(=O)[O-])CC(=O)[O-].O.[Gd+3] 1.48%
O=C(/C=C/c1ccc(O)c(O)c1)O[C@@H]1C[C@@](OC(=O)/C=C/c2ccc(O)c(O)c2)(C(=O)O)C[C@@H](O)[C@@H]1O -4.43%
COC(=O)c1sc(-c2ccccc2)cc1NC(=O)Nc1ccccc1Cl -17.6%
Cc1cc(C)cc(Nc2nc3ccccc3nc2-n2nc(C)cc2C)c1 -11.8%
CCOC(=O)N1CCc2c(sc3c2c(=O)n(Cc2ccccc2)c(=O)n3CC(=O)Nc2cccc(C)c2)C1 -18%
COc1ccc(-c2cn3c(n2)sc2cc(C(=O)Nc4c(C)cccc4C)ccc23)cc1 11.9%
Cc1ccc(CNC(=O)C2(c3cccs3)CCOCC2)cc1 -11%
CCOc1ccc(NC(=O)CSc2ncnc3c2sc2ccccc23)cc1 -3.73%
COc1ccc(C(=O)n2nc(-c3ccc(Cl)cc3)nc2NCc2ccco2)cc1 7.42%
CN(C)S(=O)(=O)c1ccc(C(=O)Nc2c(C(=O)Nc3ccc(F)cc3)oc3ccccc23)cc1 4.45%
CCc1ccc(NC(=O)c2cc3c(COC(C)=O)cnc(C)c3oc2=O)cc1 -5.88%
COc1ccccc1C(=O)Nc1c(C(=O)N2CCN(c3ccccc3F)CC2)oc2ccccc12 -17.8%
COc1ccc(NC(=O)CCCSc2nc(-c3ccco3)cc(C(F)(F)F)n2)cc1 -6.85%
Cc1cc2c(cc1S(=O)(=O)NCc1ccccc1)OCC(=O)N2 -10.7%
Cc1ccc(NC(=O)c2ccc(COc3ccccc3Cl)o2)cc1 7.74%
O=C(c1ccccc1)c1ccc2nc(N3CCN(c4ccccc4)CC3)c3nncn3c2c1 -15.9%
Cc1ccc(CNC(=O)c2ccc3c(c2)NC(=O)C(CS(=O)(=O)Cc2ccc(F)cc2)N3)cc1 (stereo unspecified) -8.46%
CN(C)c1cccc(C(=O)Nc2nc3ccc(S(=O)(=O)NC(C)(C)C)cc3s2)c1 -8.9%
CC(C)(C)c1ccc(C(=O)Nc2ccc(C(=O)OCc3cc(=O)n4ccsc4n3)cc2)cc1 -42.8%
CCC1CCCCN1CCCNC(=O)c1cn(CC)c2ccc(S(=O)(=O)N(C)C3CCCCC3)cc2c1=O (stereo unspecified) -12.5%
Cc1nc2ccc(S(=O)(=O)CCC(=O)Nc3ccc(C(C)C)cc3)cc2s1 -14.4%
O=C(CSc1ccccc1)N1CCc2c([nH]c3ccccc23)C1c1ccc(Cl)cc1 (stereo unspecified) -32.5%
Cc1cccc(S(=O)(=O)c2cn(C)c3cc(N4CCCCCC4)c(F)cc3c2=O)c1 -0.984%
Cc1cccc(NC(=O)c2cc(CN3CCOCC3)on2)c1C -3.42%
COc1ccc(NC(=O)Cn2nc3c(cc2=O)CCCC3)cc1Cl -21.4%
CCCCc1nn2c(=O)cc(CN(CC)c3ccccc3)nc2s1 -27.7%
COc1cccc(C(=O)c2cn(CC(=O)Nc3cc(Cl)c(OC)cc3OC)c3nc(C)ccc3c2=O)c1 -20.5%
Cc1nc(N2CCCC2)ncc1C(=O)NCc1ccc(Cl)cc1 -7.93%
CC1=C(c2ccc(F)cc2)S(=O)(=O)N=C1N1CCC(C(=O)NCCc2ccccc2)CC1 -7.5%
O=C(NCc1ccc(Cl)cc1)c1cc2ccc3cccnc3c2[nH]1 1.15%
COc1ccccc1N1CCN(S(=O)(=O)c2ccc(-c3ccno3)cc2OC)CC1 -33.2%
Cc1ccc(NC(=O)NCCOCCn2c(=O)oc3ccccc32)c(C)c1 -6.25%
COc1cccc(-n2c(SCC(=O)Nc3cccc(C)c3)nc3c([nH]c4ccccc43)c2=O)c1 -21.9%
CC(C)c1ccc(Cc2cn3cc(-c4cc5ccccc5oc4=O)nc3s2)cc1 -22%
COc1ccc(OC)c(C2=NS(=O)(=O)N(C)C(C(=O)Nc3ccc(C(C)=O)cc3)=C2)c1 -25.7%
COc1cc(CN(C(=O)COc2ccc(Cl)cc2)c2ccccn2)cc(OC)c1OC -34.3%
Cc1ccc(C)c(NC(=O)C2CCN(c3ncnc4c3nc3n4CCCCC3)CC2)c1 0.179%
Cc1cccc(C)c1NC(=O)NCCCN1CCN(c2ccccc2)CC1 -2.71%
CC(C)(C)c1ccc(C(=O)NNc2ncnc3c2cnn3-c2ccc(Cl)cc2)cc1 -32.6%
CNC(=O)C1CCC(Cn2c(=O)c3sccc3n(CC(=O)NCc3ccc(C)cc3)c2=O)CC1 (stereo unspecified) -15.6%
Cc1cc(C)c2c(n1)SCC(=O)N2CC(=O)Nc1ccccc1C -30.9%
Cn1c(=O)oc2cc(S(=O)(=O)N3CCCC(C(=O)NCc4ccccc4Cl)C3)ccc21 (stereo unspecified) -27.8%
COc1ccc(NC(=O)Cn2c(=O)oc3cc(Cl)ccc32)c(OC)c1 -17.1%
Cc1ccc(C)c(NC(=O)CCCn2c(C)c3cnn(-c4ccccc4)c(=O)c3c2C)c1 -13.8%
CCc1ccc(NC(=O)CSc2nc(C)c(C(=O)Nc3ccc(Cl)cc3)c(-c3ccc(OC)cc3)c2C#N)cc1 12.1%
Cc1ccccc1C(=O)Nc1sc2c(c1C(=O)O)CCC(C(C)(C)C)C2 (stereo unspecified) -37.2%
O=C(CSc1nc2c([nH]c3ccccc32)c(=O)n1-c1ccc(F)cc1)NCC1CCCO1 (stereo unspecified) -25.8%
O=C(CSc1nc2c([nH]c3ccccc32)c(=O)n1-c1ccccc1)N1CCCc2ccccc21 -8.11%
O=C(Nc1ccc(Br)cc1)c1cc2nc(-c3ccccc3)cc(-c3ccccc3)n2n1 0.406%
CCOc1ccc(-c2nnc(SCC(=O)NCc3ccc(Cl)cc3)o2)cc1 -49%
Cc1ccc(NC(=O)c2cc(S(=O)(=O)NC3CCCCCC3)ccc2F)cc1F -47.6%
